Results on eight molecules are retold here after publication PMC3424236, “Siderocalin/Lcn2/NGAL/24p3 Does Not Drive Apoptosis Through Gentisic Acid Mediated Iron Withdrawal in Hematopoietic Cell Lines” (PLoS ONE, 2012).

For series [1], the system named is Scn. The conditions noted are these: cited from earlier work.
Series [2] concerns T1, Scn.
T1 construct: made in house; host or cells: E. coli
Put plainly: Filter retention (ultrafiltration) binding assay. As to conditions: apo-Scn 10 µM, candidate siderophore 10 µM, pH 7.4, 60 min; Figure S2A.

Series [3] deals with Transduced FL5.12. As to the kind of experiment: Apoptosis/viability of FL5.12 cells stably transduced with Scn. In kind it is cell-based, murine. The conditions noted are these: iron-free compounds added at 100 µM, with IL-3.
Series [4] concerns Transduced 32D.3. Put plainly: Apoptosis/viability of 32D.3 cells stably transduced with Scn. It counts as cell-based, murine. As to conditions: iron-free compounds added at 100 µM, with IL-3.
The test system of series [5] is T1, Scn. The conditions noted are these: cited from earlier work.
Series [6] can be described thus: Solution speciation of iron complexes (HYSS, UV/Vis spectroscopy). The conditions noted are these: [Fe3+] = 20 µM, [L] = 60 µM; calculated with HYSS, confirmed by UV/Vis.
Series [7] concerns the target T2, human Scn (Homo sapiens, UniProt P80188).
T2 construct: made in house; host or cells: E. coli
Put plainly: Fluorescence quenching (FQ) binding assay. As to conditions: for fluorescence quenching / binding to Scn: alone (desferri) or in the presence of iron (ferric).

[8] abbreviates: unfittable, compared with the derived 2,3-DHBA KD, presence or absence of iron, read-out: dissociation constants.

Molecules are shown by their SMILES. Like-named read-outs stand apart in the source and are kept apart here.

For the molecule `O=C(O)c1ccccc1O` [SA, 2-hydroxybenzoic acid], in series [1], the “binding of ferric complexes to Scn” value is on record as “do not bind to Scn”.
For the molecule `O=C(N[C@H]1COC(=O)[C@@H](NC(=O)c2cccc(O)c2O)COC(=O)[C@@H](NC(=O)c2cccc(O)c2O)COC1=O)c1cccc(O)c1O` [Ent, enterobactin], the iron retention entry in series [2] is given as “greater than 50%”. In addition, the “effect on apoptosis / viability” value in series [3] and in series [4] was “induced robust apoptosis” throughout. The “pH below which iron is released from Scn/siderophore/iron complexes” value in series [5] is less than 4. Also, the Kd in series [1] (read-out: equilibrium dissociation constant (KD), binding to Scn) is 0.0004 ± 0.0001 µM.
Consider `O=C(O)c1cccc(O)c1O` [2,3-DHBA, 2,3-dihydroxybenzoic acid], for which, in series [2], the iron retention entry is listed as “greater than 50%”. Moreover, the “effect on apoptosis / viability” value in series [3] and in series [4] was “none of the other compounds had significant effects on viability” in each case. The “pH below which iron is released from Scn/siderophore/iron complexes” value in series [5] is on record as less than 4. For the same molecule, the “formation of ferric complexes as a function of pH” value in series [6] is “formed ferric complexes at physiological pH”. The Kd in series [7] (desferri ligand, pH 7.2, read-out: KD) was found to be 0.4 ± 0.01 µM; in series [7] (mixtures of iron and ligand, Fe:L complex, pH 7.2, read-out: KD), 0.000101 ± 2e-06 µM.
With `Oc1ccccc1O` [catechol, 1,2-dihydroxybenzene], in series [2], the iron retention entry is given as “greater than 50%”. In series [5], the “pH below which iron from Scn/catechol complexes is released” value is “below 6”. In series [1] (free catechol binding to Scn), the Kd is 0.2 ± 0.06 µM. For the same molecule, in series [6], the “formation of ferric complexes as a function of pH” value is given as “formed ferric complexes at physiological pH”.
Turning to `O=C(NCCN(CCNC(=O)c1cccc(O)c1O)CCNC(=O)c1cccc(O)c1O)c1cccc(O)c1O` [TRENCAM], in series [1] (binding to Scn), the Kd was 0.00032 ± 1e-05 µM.
On to `O=C(O)c1cc(O)ccc1O` [GA, 2,5-dihydroxybenzoic acid], for which the iron retention result in series [2] is given as “less than 10%”. For the same molecule, the “effect on apoptosis / viability” value in series [3] and in series [4] was “none of the other compounds had significant effects on viability” each time. Also, the Kd in series [1] (binding to Scn in the absence of iron) is 0.012 µM; in series [7] (setting [8]) it was greater than 0.4 µM. The “fluorescence quenching / binding to Scn” value in series [7] (pH 7.2) is recorded as “weak binding to Scn”.
`O=C(NCCN(CCNC(=O)c1cc(O)ccc1O)CCNC(=O)c1cc(O)ccc1O)c1cc(O)ccc1O` [TRENGEN]: the “effect on apoptosis / viability” value in series [3] and in series [4] was “none of the other compounds had significant effects on viability” in each case. Moreover, the “fluorescence quenching / binding to Scn” value in series [7] (pH 7.2) was “weak binding to Scn”. Moreover, the Kd in series [7] (setting [8]) is greater than 0.4 µM.
For the molecule `O=C(CC(O)(CC(=O)NCCCCNCCCNC(=O)c1ccc(O)c(O)c1)C(=O)O)NCCCCNCCCNC(=O)c1ccc(O)c(O)c1` [petrobactin], in series [1], the “binding to Scn as iron complexes” value is listed as “do not bind to Scn”.
